# The supplement of paper PMC3334620
# Whole data set: some 33,000 sequences, median “E-score (-0.5 to 0.5)” near -0.012, cut for the highest 2% near 0.29. Some of the results follow.
# Molecular target: T1, Ybr033w (UniProt P38073)
# T1 sequence: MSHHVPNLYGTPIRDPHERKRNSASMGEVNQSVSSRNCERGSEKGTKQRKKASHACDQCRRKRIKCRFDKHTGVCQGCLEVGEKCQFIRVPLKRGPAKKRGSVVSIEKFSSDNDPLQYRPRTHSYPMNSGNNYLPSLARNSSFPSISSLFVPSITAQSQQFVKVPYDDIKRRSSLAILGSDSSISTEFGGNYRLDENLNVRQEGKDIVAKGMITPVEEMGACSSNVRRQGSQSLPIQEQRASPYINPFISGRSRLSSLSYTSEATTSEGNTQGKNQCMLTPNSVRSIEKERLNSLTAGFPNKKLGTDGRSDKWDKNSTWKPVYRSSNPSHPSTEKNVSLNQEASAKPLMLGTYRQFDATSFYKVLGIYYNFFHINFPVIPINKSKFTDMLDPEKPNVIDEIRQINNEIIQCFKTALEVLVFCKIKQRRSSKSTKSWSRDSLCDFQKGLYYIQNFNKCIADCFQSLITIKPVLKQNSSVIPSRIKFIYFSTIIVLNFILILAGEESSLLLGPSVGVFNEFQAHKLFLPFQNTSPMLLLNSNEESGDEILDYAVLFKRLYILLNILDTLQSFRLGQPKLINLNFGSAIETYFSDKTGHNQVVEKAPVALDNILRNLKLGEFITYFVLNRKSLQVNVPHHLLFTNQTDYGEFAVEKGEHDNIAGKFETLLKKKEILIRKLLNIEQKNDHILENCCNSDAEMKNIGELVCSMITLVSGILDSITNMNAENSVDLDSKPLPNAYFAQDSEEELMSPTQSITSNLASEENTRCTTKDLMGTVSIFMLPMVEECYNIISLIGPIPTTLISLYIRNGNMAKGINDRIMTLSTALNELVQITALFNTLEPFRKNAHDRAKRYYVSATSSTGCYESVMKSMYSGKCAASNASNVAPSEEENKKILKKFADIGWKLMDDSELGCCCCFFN
# Experiment: PBM E-score (8-mer binding enrichment) (E-score (-0.5 to 0.5)); higher = stronger / more preferred TF binding; most listed sequences are background and not binding sites
# Settings: protein concentration: 200 nM; construct: GST-full length
# Summary of the method: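 Detection of bound protein used fluorescent anti-GST, with scans normalised by masliner. The proteins were GST-tagged yeast transcription factors applied at about 100-200 nM to universal all-10-mer Agilent arrays made double-stranded by primer extension. Each ungapped eight-base word, pooled with its reverse complement, was scored with an E-score from the Universal PBM Analysis Suite.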
row,Sequence,PBM E-score
1,CTCATTCA,0.0328
2,CATTATAC,0.155
3,AAGGCGCC,-0.29
4,TCATGTCA,-0.0696
5,CCAAGTCC,-0.167
6,TAAAGCCA,0.094
7,CTGGGATC,-0.156
8,GCCCGGAA,0.115
9,CAGAATAG,-0.0154
10,ACGTCCTG,-0.294
11,AGTTTCGG,0.119
12,GAAACGCC,0.0139
13,TGCAGCAA,-0.0398
14,GAGGCATC,-0.188
15,AGACAGGA,0.246
16,CCGGGGGA,-0.341
17,ATGCAATG,0.0594
18,ATCGCTGC,-0.013
19,CAAGCTGA,-0.0113
20,GATGTTGA,0.138
21,CCCTGTGC,-0.152
22,CTTCCTTA,0.118
23,AAGGGGCA,-0.254
24,ACCCTACT,0.0025
25,GGGGTTTA,-0.28

row,Sequence,PBM E-score
1,CAGTTGCC,-0.0398
2,GCACAACC,-0.148
3,CTGATCTC,-0.0253
4,CAAATCTC,-0.0207
5,AAATGGGT,0.155
6,ATTATGGA,0.188
7,AGTAACAT,0.105
8,AGACGTAG,-0.0365
9,ATGGACGC,-0.107
10,AGGGCACA,-0.0581
11,GATCCTCA,0.137
12,ATGCCAGC,-0.246
13,CAGTCTCA,0.0785
14,GGGATCCC,-0.182
15,AGCATGAT,0.0401
16,CGCGAACG,-0.148
17,AGCTGACC,-0.0157
18,AAACGATC,0.181
19,GAATAGGC,0.106
20,CGGCCTCC,-0.199
21,ACCTACGC,0.0248
22,AAGGCCGA,-0.0472
23,AATCTCCG,0.013
24,TGCCTGAA,0.0649
25,CTCCGATC,-0.0874

row,Sequence,PBM E-score
1,ACTCACAG,0.0756
2,CTCGGCCC,-0.21
3,AGGAATAG,0.134
4,GCTGGAAA,0.158
5,CATTTCAA,0.242
6,GAGGCATA,-0.0757
7,ACTACTGA,-0.0231
8,GAAGGTGA,0.0517
9,AGTGCTTC,-0.06
10,AAAACTTC,0.176
11,GGGATGAA,-0.0863
12,AGCATTAC,0.015
13,AAAGTATC,0.262
14,ACTGCCGG,-0.0435
15,ATCGCCTC,0.027
16,ATAAACCA,0.138
17,ATATTAAC,0.301
18,ATAACAAC,0.0879
19,GCTCGTTA,-0.233
20,CAAACGTC,-0.14
21,CCTAACTC,-0.22
22,CTCGGACA,-0.0707
23,CTCTGCCA,-0.114
24,GCATACCC,-0.0451
25,ATCTGATA,-0.0208

row,Sequence,PBM E-score
1,ATTGTCTA,0.144
2,GCAATCGC,-0.0818
3,AATGGCTC,0.00373
4,CGTAGGCA,-0.156
5,CTAATTGA,0.213
6,CCACAATA,0.0365
7,AGATTGAA,0.213
8,AACATACC,0.109
9,TCTCCGAA,0.075
10,ACAGGATA,0.0292
11,TCATACCA,0.167
12,GCGGTAAA,0.133
13,ACGCTCCA,0.0968
14,ATACCTCC,-0.274
15,ACCTCCCC,-0.0928
16,CCCGCCCG,-0.013
17,ATCTCAAA,0.188
18,GCGACAAA,-0.0629
19,ACACTGAA,0.178
20,CAAGACTA,0.0818
21,CATGGGAG,-0.257
22,TGTGGCAA,0.0123
23,GACTCCAA,-0.0418
24,GAACTGCA,0.0587
25,GATATCAA,0.161

row,Sequence,PBM E-score
1,GCTACAGA,-0.0725
2,CCTGACCA,0.108
3,CGCGGTAG,-0.0608
4,CAGACTTA,-0.189
5,GACGCCAA,-0.174
6,AACGACAG,-0.121
7,GAAGAGTA,0.0636
8,CGGGAACA,0.331
9,CCAAGCTA,-0.223
10,AAATAGAG,0.247
11,CGTTCTGC,0.0161
12,CTCGGCAC,-0.23
13,ACGTGTGG,-0.0918
14,AAGGCTAC,-0.0545
15,AGTTGTGG,0.143
16,ACCAAGCC,-0.0301
17,CCCAGAAA,0.0252
18,TAGCCGGA,-0.0689
19,GGGCAAAC,-0.188
20,CCAACATC,-0.0802
21,ACACGTCT,0.0647
22,AAACGAGC,0.0801
23,CTACACCA,0.013
24,CTTGTACA,0.124
25,ATTCACCA,0.201

row,Sequence,PBM E-score
1,AGTTTAAT,0.149
2,AATCTAAG,0.208
3,TCTTGGCA,0.171
4,AAACCGCT,0.069
5,CCTGAGCC,-0.22
6,ACATGGTC,-0.129
7,GATCAAGC,-0.0651
8,AGGGGTGG,-0.226
9,CAAGACTG,-0.0465
10,CCGCCAAG,-0.25
11,GAGCACCA,-0.0524
12,CACACGTG,-0.0461
13,CATCCGTA,0.148
14,ACAAGACG,-0.208
15,CGCCTGGC,-0.271
16,TGTCGAAA,0.114
17,GGCAATAA,-0.0439
18,CTCCTGCC,-0.0472
19,AGAAACTG,0.0984
20,CGAACTGC,0.0659
21,CGACTTAA,0.115
22,ATCTAGTG,0.149
23,AGTAAGGG,0.00036
24,GGTGGAGA,-0.293
25,CAATAGTG,0.0349

row,Sequence,PBM E-score
1,CAGATTGA,-0.0434
2,CTGGTGAC,-0.145
3,GGAAAGCA,-0.009
4,GGCTCGCA,-0.142
5,ACCCTGCC,-0.3
6,GCACAATA,-0.08
7,ATTGGAAG,0.0941
8,ATGTATCC,-0.03
9,GATGCGAA,0.16
10,CCGATTTA,0.183
11,ACCTAAGA,-0.00531
12,AGGAATAA,0.364
13,ATACCATG,-0.0754
14,ACAAATCT,0.234
15,TCTAGGAA,0.102
16,GAGAAAGA,0.0415
17,GACTGAAA,0.0609
18,AGCCATCA,0.0789
19,CGAAAACC,0.142
20,CGTTAACC,0.0472
21,AATATTAT,0.335
22,ACATTCGG,-0.0625
